# Data reported in the supplement of paper PMC8728848.
# The list shows a part of the results.
# B1: F17-L (Escherichia coli) (protein)
# chain: GPDDYVPSQIAVNTSTLPGVVIGPADAHTYPRVIGELAGTSNQYVFNGGAIALMRGKFTPALPKIGSITYTFHQGNSRDSSDFDIYDIGVSGLGIIIGMAGYWPATPLVPINSSGIYIDPVGANTNPNTYNGATASFGARLFVAFVATGRLPNGYITIPTRQLGTILLEAKRTSLNNKGLTAPVMLNGGRIQVQSQTHHHHHH
# Legend:
# Assay in all cases: glycan array binding signal (z-score within array); higher = stronger binding
# Conditions in all cases: glycan notation: IUPAC condensed, linker removed
# Gal(b1-3)GlcNAc6S = molecular target: Gal(b1-3)GlcNAc6S
# Summary of the method: (§1)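 From the Consortium for Functional Glycomics database, 3228 arrays were curated, keeping only those whose protein sequence was available. Binding is given as a within-array Z-score averaged across arrays sharing a protein sequence and across linkers. Negative Z-scores can be read as non-binding.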
# [1] = molecular target: Gal(b1-3)[Fuc(a1-4)]GlcNAc
# Summary of the method: as §1
# [2] = molecular target: Gal(b1-3)[Fuc(a1-4)]GlcNAc(b1-2)Man
# Summary of the method: as §1
# [3] = molecular target: Gal(b1-3)[Fuc(a1-4)]GlcNAc(b1-2)Man(a1-3)[Gal(b1-3)[Fuc(a1-4)]GlcNAc(b1-2)Man(a1-6)]Man(b1-4)GlcNAc(b1-4)[Fuc(a1-6)]GlcNAc
# Summary of the method: as §1
# [4] = molecular target: Gal(b1-3)[Fuc(a1-4)]GlcNAc(b1-3)Gal(b1-3)[Fuc(a1-4)]GlcNAc
# Summary of the method: as §1
# [5] = molecular target: Gal(b1-3)[Fuc(a1-4)]GlcNAc(b1-3)Gal(b1-4)[Fuc(a1-3)]GlcNAc
# Summary of the method: as §1
# [6] = molecular target: Gal(b1-3)[Fuc(a1-4)]GlcNAc(b1-6)GalNAc
# Summary of the method: as §1
# [7] = molecular target: Gal(b1-3)[GlcNAc(b1-6)]GalNAc
# Summary of the method: as §1
# [8] = molecular target: Gal(b1-3)[Neu5Ac(a2-6)]GalNAc
# Summary of the method: as §1
# [9] = molecular target: Gal(b1-3)[Neu5Ac(a2-6)]GlcNAc(b1-4)Gal(b1-4)Glc
# Summary of the method: as §1
# [10] = molecular target: Gal(b1-3)[Neu5Ac(b2-6)]GalNAc
# Summary of the method: as §1
# Gal(b1-4)Gal = molecular target: Gal(b1-4)Gal
# Summary of the method: as §1
# [11] = molecular target: Gal(b1-4)GalNAc(a1-3)[Fuc(a1-2)]Gal(b1-4)GlcNAc
# Summary of the method: as §1
# [12] = molecular target: Gal(b1-4)GalNAc(b1-3)[Fuc(a1-2)]Gal(b1-4)GlcNAc
# Summary of the method: as §1
# Gal(b1-4)Glc = molecular target: Gal(b1-4)Glc
# Summary of the method: as §1
# Gal(b1-4)Glc6S = molecular target: Gal(b1-4)Glc6S
# Summary of the method: as §1
# Gal(b1-4)GlcNAc = molecular target: Gal(b1-4)GlcNAc
# Summary of the method: as §1
# [13] = molecular target: Gal(b1-4)GlcNAc(a1-6)Gal(b1-4)GlcNAc
# Summary of the method: as §1
# Gal(b1-4)GlcNAc(b1-2)Man = molecular target: Gal(b1-4)GlcNAc(b1-2)Man
# Summary of the method: as §1
# [14] = molecular target: Gal(b1-4)GlcNAc(b1-2)Man(a1-3)Man(b1-4)GlcNAc(b1-4)GlcNAc
# Summary of the method: as §1
# [15] = molecular target: Gal(b1-4)GlcNAc(b1-2)Man(a1-3)[Gal(b1-4)GlcNAc(b1-2)Man(a1-6)]Man(b1-4)GlcNAc(b1-4)GlcNAc
# Summary of the method: as §1
# [16] = molecular target: Gal(b1-4)GlcNAc(b1-2)Man(a1-3)[Gal(b1-4)GlcNAc(b1-2)Man(a1-6)]Man(b1-4)GlcNAc(b1-4)[Fuc(a1-6)]GlcNAc
# Summary of the method: as §1
# [17] = molecular target: Gal(b1-4)GlcNAc(b1-2)Man(a1-3)[Gal(b1-4)GlcNAc(b1-2)Man(a1-6)][Gal(b1-4)GlcNAc(b1-4)]Man(b1-4)GlcNAc(b1-4)[Fuc(a1-6)]GlcNAc
# Summary of the method: as §1
# [18] = molecular target: Gal(b1-4)GlcNAc(b1-2)Man(a1-3)[Gal(b1-4)GlcNAc(b1-2)Man(a1-6)][GlcNAc(b1-4)]Man(b1-4)GlcNAc(b1-4)[Fuc(a1-6)]GlcNAc
# Summary of the method: as §1
# [19] = molecular target: Gal(b1-4)GlcNAc(b1-2)Man(a1-3)[GlcNAc(b1-2)Man(a1-6)]Man(b1-4)GlcNAc(b1-4)GlcNAc
# Summary of the method: as §1
# [20] = molecular target: Gal(b1-4)GlcNAc(b1-2)Man(a1-3)[GlcNAc(b1-4)][Gal(b1-4)GlcNAc(b1-2)Man(a1-6)]Man(b1-4)GlcNAc(b1-4)GlcNAc
# Summary of the method: as §1
# [21] = molecular target: Gal(b1-4)GlcNAc(b1-2)Man(a1-3)[Man(a1-6)]Man(b1-4)GlcNAc(b1-4)GlcNAc
# Summary of the method: as §1
# [22] = molecular target: Gal(b1-4)GlcNAc(b1-2)Man(a1-6)Man(b1-4)GlcNAc(b1-4)GlcNAc
# Summary of the method: as §1
# [23] = molecular target: Gal(b1-4)GlcNAc(b1-2)Man(a1-6)[GlcNAc(b1-2)Man(a1-3)]Man(b1-4)GlcNAc(b1-4)GlcNAc
# Summary of the method: as §1
# [24] = molecular target: Gal(b1-4)GlcNAc(b1-2)Man(a1-6)[Man(a1-3)]Man(b1-4)GlcNAc(b1-4)GlcNAc
# Summary of the method: as §1
# [25] = molecular target: Gal(b1-4)GlcNAc(b1-2)[Gal(b1-4)GlcNAc(b1-4)]Man(a1-3)[Gal(b1-4)GlcNAc(b1-2)Man(a1-6)]Man(b1-4)GlcNAc(b1-4)GlcNAc
# Summary of the method: as §1
# [26] = molecular target: Gal(b1-4)GlcNAc(b1-2)[Gal(b1-4)GlcNAc(b1-4)]Man(a1-3)[Gal(b1-4)GlcNAc(b1-2)[Gal(b1-4)GlcNAc(b1-6)]Man(a1-6)]Man(b1-4)GlcNAc(b1-4)GlcNAc
# Summary of the method: as §1
# [27] = molecular target: Gal(b1-4)GlcNAc(b1-2)[Gal(b1-4)GlcNAc(b1-4)]Man(a1-3)[GlcNAc(b1-4)][Gal(b1-4)GlcNAc(b1-2)Man(a1-6)]Man(b1-4)GlcNAc(b1-4)GlcNAc
# Summary of the method: as §1
# [28] = molecular target: Gal(b1-4)GlcNAc(b1-2)[Gal(b1-4)GlcNAc(b1-4)]Man(a1-3)[GlcNAc(b1-4)][Gal(b1-4)GlcNAc(b1-2)[Gal(b1-4)GlcNAc(b1-6)]Man(a1-6)]Man(b1-4)GlcNAc(b1-4)GlcNAc
# Summary of the method: as §1
# [29] = molecular target: Gal(b1-4)GlcNAc(b1-2)[Gal(b1-4)GlcNAc(b1-6)]Man(a1-6)[Gal(b1-4)GlcNAc(b1-2)Man(a1-3)]Man(b1-4)GlcNAc(b1-4)GlcNAc
# Summary of the method: as §1
# [30] = molecular target: Gal(b1-4)GlcNAc(b1-2)[Gal(b1-4)GlcNAc(b1-6)]Man(a1-6)[Gal(b1-4)GlcNAc(b1-2)Man(a1-3)]Man(b1-4)GlcNAc(b1-4)[Fuc(a1-6)]GlcNAc
# Summary of the method: as §1
# [31] = molecular target: Gal(b1-4)GlcNAc(b1-2)[Gal(b1-4)GlcNAc(b1-6)]Man(a1-6)[GlcNAc(b1-4)][Gal(b1-4)GlcNAc(b1-2)Man(a1-3)]Man(b1-4)GlcNAc(b1-4)GlcNAc
# Summary of the method: as §1
# [32] = molecular target: Gal(b1-4)GlcNAc(b1-2)[Gal(b1-4)GlcNAc(b1-6)]Man(a1-6)[GlcNAc(b1-4)][Gal(b1-4)GlcNAc(b1-2)[Gal(b1-4)GlcNAc(b1-4)]Man(a1-3)]Man(b1-4)GlcNAc(b1-4)[Fuc(a1-6)]GlcNAc
# Summary of the method: as §1
# [33] = molecular target: Gal(b1-4)GlcNAc(b1-3)Gal(b1-3)GalNAc
# Summary of the method: as §1
# [34] = molecular target: Gal(b1-4)GlcNAc(b1-3)Gal(b1-3)GlcNAc
# Summary of the method: as §1
# [35] = molecular target: Gal(b1-4)GlcNAc(b1-3)Gal(b1-4)Glc
# Summary of the method: as §1
# [36] = molecular target: Gal(b1-4)GlcNAc(b1-3)Gal(b1-4)GlcNAc
# Summary of the method: as §1
# [37] = molecular target: Gal(b1-4)GlcNAc(b1-3)Gal(b1-4)GlcNAc(b1-2)Man(a1-3)[Gal(b1-4)GlcNAc(b1-3)Gal(b1-4)GlcNAc(b1-2)Man(a1-6)]Man(b1-4)GlcNAc(b1-4)GlcNAc
# Summary of the method: as §1
# [38] = molecular target: Gal(b1-4)GlcNAc(b1-3)Gal(b1-4)GlcNAc(b1-2)Man(a1-3)[Gal(b1-4)GlcNAc(b1-3)Gal(b1-4)GlcNAc(b1-2)Man(a1-6)]Man(b1-4)GlcNAc(b1-4)[Fuc(a1-6)]GlcNAc
# Summary of the method: as §1
# [39] = molecular target: Gal(b1-4)GlcNAc(b1-3)Gal(b1-4)GlcNAc(b1-2)[Gal(b1-4)GlcNAc(b1-3)Gal(b1-4)GlcNAc(b1-6)]Man(a1-6)[Gal(b1-4)GlcNAc(b1-3)Gal(b1-4)GlcNAc(b1-2)Man(a1-3)]Man(b1-4)GlcNAc(b1-4)GlcNAc
# Summary of the method: as §1
binder,measurement,setting,value
B1,glycan array binding signal (z-score),Gal(b1-3)GlcNAc6S,-0.151
same,glycan array binding signal (z-score),[1],-0.161
same,glycan array binding signal (z-score),[2],-0.06
same,glycan array binding signal (z-score),[3],0.915
same,glycan array binding signal (z-score),[4],0.008
same,glycan array binding signal (z-score),[5],-0.057
same,glycan array binding signal (z-score),[6],-0.166
same,glycan array binding signal (z-score),[7],0.092
same,glycan array binding signal (z-score),[8],-0.135
same,glycan array binding signal (z-score),[9],0.247
same,glycan array binding signal (z-score),[10],-0.18
same,glycan array binding signal (z-score),Gal(b1-4)Gal,-0.183
same,glycan array binding signal (z-score),[11],0.026
same,glycan array binding signal (z-score),[12],-0.183
same,glycan array binding signal (z-score),Gal(b1-4)Glc,-0.096
same,glycan array binding signal (z-score),Gal(b1-4)Glc6S,-0.062
same,glycan array binding signal (z-score),Gal(b1-4)GlcNAc,-0.106
same,glycan array binding signal (z-score),[13],-0.163
same,glycan array binding signal (z-score),Gal(b1-4)GlcNAc(b1-2)Man,-0.037
same,glycan array binding signal (z-score),[14],-0.143
same,glycan array binding signal (z-score),[15],-0.104
same,glycan array binding signal (z-score),[16],-0.13
same,glycan array binding signal (z-score),[17],-0.022
same,glycan array binding signal (z-score),[18],-0.123
same,glycan array binding signal (z-score),[19],-0.165
same,glycan array binding signal (z-score),[20],-0.12
same,glycan array binding signal (z-score),[21],-0.073
same,glycan array binding signal (z-score),[22],-0.011
same,glycan array binding signal (z-score),[23],-0.152
same,glycan array binding signal (z-score),[24],-0.142
same,glycan array binding signal (z-score),[25],-0.169
same,glycan array binding signal (z-score),[26],-0.162
same,glycan array binding signal (z-score),[27],-0.095
same,glycan array binding signal (z-score),[28],-0.177
same,glycan array binding signal (z-score),[29],-0.12
same,glycan array binding signal (z-score),[30],-0.103
same,glycan array binding signal (z-score),[31],-0.124
same,glycan array binding signal (z-score),[32],-0.148
same,glycan array binding signal (z-score),[33],-0.191
same,glycan array binding signal (z-score),[34],-0.116
same,glycan array binding signal (z-score),[35],1.67
same,glycan array binding signal (z-score),[36],-0.219
same,glycan array binding signal (z-score),[37],-0.002
same,glycan array binding signal (z-score),[38],-0.127
same,glycan array binding signal (z-score),[39],-0.014
